Measurements reported in patent publication US20220049016A1 (ZYMEDI, published 2022).

Biological target: T1, KRS epitope peptide F4
T1 peptide: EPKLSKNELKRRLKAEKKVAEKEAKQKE
Test: SPR, Biacore T200, antibody on the chip, peptide F4 as analyte
Method: The SPR experiment was performed using a Biacore T200 (GE Healthcare) equipped with a Series S sensor chip CM5 (GE Healthcare) at 25° C. After the antibody was immobilized on the chip using an amine coupling kit (GE Healthcare), the antigen was diluted 4 times in PBS solution in the range of 4.8 nM-1250 nM and flowed for 60 seconds. Thereafter, PBS was flowed for 300 seconds. The obtained data was analyzed with Biacore T200 Evaluation software v2.0 (GE Healthcare).
After that, PBS was flowed for 2400 seconds. The obtained data was analyzed with Biacore T200 Evaluation software v2.0 (GE Healthcare).

Kd: 0.802 nM
koff: 0.000215 s⁻¹
kon: 268000 M⁻¹ s⁻¹
B1: N3-8-1 antibody (IgG) (antibody)
heavy: EVQLLESGGGLVQPGGSLRLSCAASGFTFSSYDMSWVRQAPGKGLEWVSAISPYSGRIYYADSVKGRFTISRDNSKNTLYLQMNSLRAEDTAVYYCARMALDFDYWGQGTLVTVSS[letters of human IgG1 constant region omitted]
light: QSVLTQPPSASGTPGQRVTISCTGSSSNIGSNYVTWYQQLPGTAPKLLIYDNSNRPSGVPDRFSGSKSGTSASLAISGLQSEDEADYYCSSFSDELGAYVFGGGTKLTVLGQPKAAPSVTLFPPSSEELQANKATLVCLISDFYPGAVTVAWKADSSPVKAGVETTTPSKQSNNKYAASSYLSLTPEQWKSHRSYSCQVTHEGSTVEKTVAPTECS
notes: Whole IgG1, N3-8 derivative; also called N3-8-1 IgG
